Measurements: PubChem BioAssay AID1963576 (National Center for Advancing Translational Sciences (NCATS), 2024)
The whole screen tested about 46,000 compounds, of which about 60 (0.1%) were called active. Not shown: some 3% with an inconclusive outcome. The call rests on the fitted dose curve; in most records, active means well fitted inhibition curve with a large enough effect; inconclusive means small, poorly fitted or top-dose-only effect; inactive means no such curve, though single readings can be large or run the other way. This is one part of the list.

assay: Primary qHTS assay for Inhibitors of ovarian cancer metastasis using an organotypic tumor microenvironment (TME) model.; further: nearly all actives have a fitted effect of over 65% in size;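 on activity change, negative = inhibition: plate controls were DMSO wells for no effect and tomatine positive control wells for full effect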; conditions: SKOV3ip1-GFP adhesion/invasion on 3D omental model, fluorescence; series mostly up to 45.8 µM; activity change, negative = inhibition: at the top concentration
Method in brief: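 qHTS, 4-pt dose (0.36-46 umol/L); SKOV3ip1-GFP, 1,200 cells/well, no FBS; primary omental fibroblast/mesothelial co-culture 48 h pre-grown; 2 h RT + 16 h 37 C; PBS wash, 4% PFA; GFP count 488/509 nm.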

outcome, inactive:
O=C(Nc1nnc(S(=O)(=O)N2CCOCC2)s1)c1ccccc1F
CC(=O)Nc1ccc(NC(=O)c2ccc3c(c2)NC(=O)c2ccccc2S3)cc1
CCc1ccc(OCc2nc(-c3ccc(OC)c(OC)c3)no2)c(Br)c1
Cc1c(C(=O)Nc2ccc(F)c(Cl)c2)oc2ccc(S(=O)(=O)N(C)C3CCCCC3)cc12
O=C(NCC(c1ccc2c(c1)OCO2)N1CCOCC1)C(=O)Nc1ccc(F)cc1F (stereo unspecified)
CC(C)(C)c1ccc(S(=O)(=O)c2cn(CC(=O)Nc3ccccc3)c3ccccc3c2=O)cc1
COc1ccc(NC(=O)c2cc(S(=O)(=O)N3CCCCCC3)cn2C)cc1Cl
COc1cccc(N2CCN(S(=O)(=O)c3cn(C)c(C)n3)CC2)c1
COc1ccc(C(=O)NC2CC(=O)N(c3ccc4c(c3)OCCO4)C2)cc1 (stereo unspecified)

Activity change, negative = inhibition, inactive:
Cc1ccc(NC(=O)C(C)Sc2nc(-c3ccccc3)c(C#N)c(=O)[nH]2)c(C)c1 (stereo unspecified) 8.01%
CCn1c(=O)sc2cc(NS(=O)(=O)c3ccc(C)cc3)ccc21 -4.08%
CCOC(=O)N1CCc2c(sc3c2c(=O)n(Cc2ccccc2)c(=O)n3CC(=O)Nc2ccc(C)cc2C)C1 -9.55%
CCc1ccc2c(c1)NC(c1ccc(C)cc1)=NC(c1cccs1)=N2 -18.4%
CCc1ccc(NC(=O)Cn2nnc(C(=O)NCc3ccc(C)cc3)c2N)cc1 2.55%
O=C(Nc1ccc(F)cc1F)C1CCN(S(=O)(=O)c2ccc3[nH]c(=O)ccc3c2)CC1 -0.358%
CCc1ccccc1N(C)C(=O)c1cn(-c2cccc(OC)c2)c(=O)c2ccccc12 9.34%
Cc1nc2n(c(=O)c1CCN1CCC(c3noc4cc(F)ccc34)CC1)CCCC2 10.3%
CCOc1ccc(C(=O)NCC(c2ccc3c(c2)OCO3)N2CCOCC2)cc1 (stereo unspecified) 0.0919%
CC(=O)c1ccc(N2C(=O)N(Cc3ccccc3C#N)c3ccccc3S2(=O)=O)cc1 2.12%
CN(C)c1ccc(C2C=C(c3ccccc3)Nc3nnnn32)cc1 (stereo unspecified) 5.29%
O=C(CCc1nc2cccnc2n1-c1ccccc1)Nc1ccc(Cl)c(Cl)c1 0.0812%
CC1(C(=O)NC2CCCCC2)Cc2ccccc2C(=O)N1Cc1ccccc1Cl (stereo unspecified) 2.98%
COc1cc(NC(=O)CCc2nc3cccnc3n2Cc2cccs2)cc(OC)c1OC -4.21%
Cc1ccc(-n2ncc(C(=O)Nc3ccc4c(c3)OCO4)c2C2CCN(C(=O)OC(C)(C)C)CC2)c(C)c1 -8.26%
COc1cc(-c2noc(-c3ccc(NCc4ccco4)c([N+](=O)[O-])c3)n2)cc(OC)c1OC 11.5%
CCCCN(CC)C(=O)c1cc2c(=O)n3ccccc3nc2n1C -0.346%
Cc1nn(C)c2c1c(C(F)(F)F)cc(=O)n2CC(=O)N1CCCCC1C (stereo unspecified) 0.166%
CCCOc1ccc(-c2nc(N3CCCCC3)c3ccccc3n2)cc1 -7.51%
Cc1cn2c(=O)cc(COc3ccc(NC(=O)c4ccccc4C)cc3)nc2s1 -20.9%
CCOC(=O)c1nc(Nc2ccccc2OC)c2ccccc2n1 13.5%
O=C(CN1C(=O)CC(c2ccco2)Sc2ccccc21)Nc1ccc(C(F)(F)F)cc1 (stereo unspecified) -5.53%
O=C(Nc1cccc(Cl)c1)N1CCC(CN2CCOCC2)CC1 -0.0803%
O=C(Cn1cnc2c(oc3ccccc32)c1=O)Nc1ccc(OC(F)(F)F)cc1 4.88%
COc1cc2[nH]c(=O)n(Cc3ccc(C(=O)N4CCN(c5cc(Cl)ccc5C)CC4)cc3)c(=O)c2cc1OC -22.8%
CCOC(=O)c1ccc(NC(=O)c2c(C)nn(-c3ccc(F)cc3)c2-n2cccc2)cc1 1.02%
CCn1c(SCc2ccc(F)cc2Cl)nnc1-c1nonc1NC(C)=O -4.71%
Cc1ccc2c(c1)N(C(=O)C1CCN(S(=O)(=O)c3c(C)noc3/C=C/c3ccccc3F)CC1)CCO2 7.23%
O=C(Nc1nnc(S(=O)(=O)N2CCCc3ccccc32)s1)c1cccc(F)c1 7.06%
COc1ccc(N(C(=O)c2cccc(C)c2)S(=O)(=O)c2ccc(C)cc2)cc1 -0.347%
COC(=O)C1CCN(CC(=O)Nc2cc(C)c3c(=O)oc4ccccc4c3n2)CC1 20.4%
Cc1cc(C)c(NC(=O)Cn2ccn(-c3cccc(Cl)c3)c(=O)c2=O)c(C)c1 -3.68%
O=C(CCC1N=C2c3ccccc3N=C(SCc3ccccc3F)N2C1=O)NCCc1ccccc1 (stereo unspecified) -6.88%
COc1ccccc1CNC(=O)Cc1csc2nc(-c3ccccc3)cn12 14.8%
Cc1ccc(CNC(=O)c2ccc3c(c2)N(Cc2ccccc2)C(=O)c2ccccc2S3(=O)=O)cc1 -0.244%
Cc1cccc(CCNC(=O)c2cnc3c(C)cccn3c2=O)c1 3.88%
COc1ccc(/C=C/C(=O)Nc2nc3n(n2)C(c2ccccc2)C=C(c2ccc(Cl)cc2)N3)cc1 (stereo unspecified) -6.98%
COc1ccc2oc(=O)c(-c3cn4c(n3)sc3cc(OC)ccc34)cc2c1 -7.31%
COc1ccc(OC)c(CNC(=O)Cn2nc(C)c3nn(-c4ccc(Cl)cc4)c(C)c3c2=O)c1 0.272%
CCOc1ccccc1CNC(=O)c1ccc(NC(=O)N2CCSc3ncccc32)cc1 -4.85%
Fc1ccc(-n2ncc3c(N4CCC(Cc5ccccc5)CC4)ncnc32)cc1 3.53%
COc1ccc(CNC(=O)CCNS(=O)(=O)c2cccc3nsnc23)cc1 19.8%
Clc1ccc(N2CCN(c3ncnc4c3cnn4-c3ccccc3)CC2)cc1Cl -11.7%
C[C@@H](CN1CC(=O)NC(=O)C1)N1CC(=O)NC(=O)C1 -10.2%
CCc1ccccc1NC(=O)Nc1nnc(N(C)Cc2ccccc2)s1 -7.85%
Cc1sc2ncn(CC(=O)Nc3ccc(F)cc3F)c(=O)c2c1S(=O)(=O)N1CCC(C)CC1 -16.9%
CCOc1ccccc1NC(=O)N1CCC(n2c(C)nc3cccnc32)CC1 -4.61%
CCCNC(=O)c1cnn2c(C)c(Cc3c(C)cc(C)cc3C)c(C)nc12 -2.11%
COc1ccc(NC(=O)c2cc3nc(-c4ccc(Cl)c(Cl)c4)cc(C(F)(F)F)n3n2)c(OC)c1 15.5%
Cc1ccc(CCNC(c2ccc(F)cc2)c2nnc(-c3ccccc3Cl)o2)cc1 (stereo unspecified) -3.11%
COc1ccc(CNC(=O)CCc2cn(C)c3ccccc23)cc1 12.4%
Cc1c(-c2nnc(SCC(=O)Nc3ccccc3F)o2)nnn1-c1ccc(F)cc1 -7.01%
